Reference: publication PMC4336329 (PLoS ONE, 2015)
About 2,200 (0.71%) of roughly 310,000 compounds showed an effect of 50% or more. The effect is printed as a negative number. Some of the results follow.

Each compound was assayed against human ether-à-go-go-related gene (hERG) potassium channel (human, UniProt Q12809) (assay: primary screen, population patch clamp on CHO cells stably expressing hERG).
Sequence of human ether-à-go-go-related gene (hERG) potassium channel (Q12809 whole entry, looked up): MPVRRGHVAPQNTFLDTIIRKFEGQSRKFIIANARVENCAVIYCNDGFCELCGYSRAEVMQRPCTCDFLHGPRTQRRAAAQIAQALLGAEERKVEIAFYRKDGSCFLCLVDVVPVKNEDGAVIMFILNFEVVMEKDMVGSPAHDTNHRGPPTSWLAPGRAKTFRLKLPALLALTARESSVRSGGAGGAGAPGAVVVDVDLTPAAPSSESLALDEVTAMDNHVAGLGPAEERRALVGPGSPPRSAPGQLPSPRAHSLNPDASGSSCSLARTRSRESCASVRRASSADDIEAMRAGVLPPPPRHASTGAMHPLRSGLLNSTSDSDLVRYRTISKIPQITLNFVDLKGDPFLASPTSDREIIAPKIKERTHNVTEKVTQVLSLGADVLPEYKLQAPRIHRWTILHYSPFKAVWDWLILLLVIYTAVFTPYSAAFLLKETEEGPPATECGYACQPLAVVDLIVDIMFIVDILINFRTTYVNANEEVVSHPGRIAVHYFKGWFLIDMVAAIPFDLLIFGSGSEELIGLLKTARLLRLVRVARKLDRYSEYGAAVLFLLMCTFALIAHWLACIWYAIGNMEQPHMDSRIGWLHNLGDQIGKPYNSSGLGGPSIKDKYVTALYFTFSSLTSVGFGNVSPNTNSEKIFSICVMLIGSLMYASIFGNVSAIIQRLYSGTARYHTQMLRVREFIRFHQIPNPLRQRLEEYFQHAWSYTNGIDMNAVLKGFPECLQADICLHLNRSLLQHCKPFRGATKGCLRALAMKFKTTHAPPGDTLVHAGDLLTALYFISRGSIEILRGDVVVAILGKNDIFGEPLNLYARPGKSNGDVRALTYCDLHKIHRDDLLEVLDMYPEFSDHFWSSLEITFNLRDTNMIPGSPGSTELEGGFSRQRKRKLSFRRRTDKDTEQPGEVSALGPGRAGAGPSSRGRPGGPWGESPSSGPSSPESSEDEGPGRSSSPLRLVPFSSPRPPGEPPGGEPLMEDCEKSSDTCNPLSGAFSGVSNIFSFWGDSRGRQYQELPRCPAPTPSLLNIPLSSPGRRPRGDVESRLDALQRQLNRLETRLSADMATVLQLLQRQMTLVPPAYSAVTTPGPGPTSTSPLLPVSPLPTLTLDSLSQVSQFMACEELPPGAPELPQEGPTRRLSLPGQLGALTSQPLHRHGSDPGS

Which “hERG current change (%, negative = inhibition) at 1uM” value does the source give for `CC(C)Cc1oc(C(=O)O)cc1CN.Cl` here?
Its value is 9.05%.

`O=C(Nc1ccc(Cc2ccncc2)cc1)c1cc(F)c(F)cc1Cl` was tested. Which “hERG current change (%, negative = inhibition) at 1uM” value did it give?
Its value is -7.02%.

How did the “hERG current change (%, negative = inhibition) at 1uM” value turn out when `O=C1C=C(Nc2ccc(Cl)cc2)C(=O)N1c1ccc(Cl)cc1` was run?
The value was 12.1%.

For `Cc1sc2ncn(CC(=O)NCC3COc4ccccc4O3)c(=O)c2c1S(=O)(=O)N1CCOCC1` (stereo not shown), which “hERG current change (%, negative = inhibition) at 1uM” value is on record?
Its value is 4.87%.

How did the “hERG current change (%, negative = inhibition) at 1uM” value turn out when `Nc1nc(CN2CCCCC2)cs1` was run?
The value was -0.548%.

Which “hERG current change (%, negative = inhibition) at 1uM” value does the source give for `Cc1nc(SCC(=O)NC(=O)NCc2ccccc2)nc(C)c1C` here?
The value was -1.47%.

With `CCN1CCN(c2ccc(NC(=O)c3ccc(C#N)cc3F)cc2Cl)CC1` as the compound, how does the “hERG current change (%, negative = inhibition) at 1uM” value read?
Its value is -39.3%.

`O=C(NC(=S)N1CCOCC1)c1cn(-c2ccccc2)nc1-c1ccccc1` was tested. Which “hERG current change (%, negative = inhibition) at 1uM” value did it give?
Its value is 7.42%.

`O=C(c1ccc(NS(=O)(=O)/C=C/c2ccccc2)cc1)N1CCCCC1` was tested. Which “hERG current change (%, negative = inhibition) at 1uM” value did it give?
The value was 3.33%.

For `CCOC(=O)c1nc(Nc2ccccc2CC)c2ccccc2n1`, which “hERG current change (%, negative = inhibition) at 1uM” value is on record?
The value was 2.98%.

Which “hERG current change (%, negative = inhibition) at 1uM” value does the source give for `c1cncc(C2Nc3ccccc3-c3nc4ccccc4n32)c1` (stereo not shown) here?
The value was 5.1%.

Which “hERG current change (%, negative = inhibition) at 1uM” value does the source give for `O=C1C2C3C=CC(C3)C2C(=O)N1CN(Cc1ccccc1)CN1C(=O)C2C3C=CC(C3)C2C1=O` (stereo not shown) here?
Its value is -0.815%.

Which “hERG current change (%, negative = inhibition) at 1uM” value does the source give for `COc1cccc(C(=O)N[C@@H](C)C(=O)N2CCC3(CC2)NCCc2[nH]cnc23)c1` here?
The value was 16.1%.

`Nc1ncc(-c2ccccc2)c(-c2ccc(OCc3ccccc3)cc2O)n1` was tested. Which “hERG current change (%, negative = inhibition) at 1uM” value did it give?
The value was 3.68%.

How did the “hERG current change (%, negative = inhibition) at 1uM” value turn out when `COC(=O)c1ccc(OCC(=O)Nc2ccccc2C(=O)NC2CC2)cc1` was run?
The value was 5.82%.

With `CCC1CCCCN1P(=O)(c1ccc(C)o1)C(C)(C)C` (stereo not shown) as the compound, how does the “hERG current change (%, negative = inhibition) at 1uM” value read?
Its value is -3.48%.

How did the “hERG current change (%, negative = inhibition) at 1uM” value turn out when `Cc1c(C(=O)O)sc2nc(CSc3nnc(-c4ccc(F)cc4)n3C)[nH]c(=O)c12` was run?
Its value is 8.36%.

For `CC(OC(=O)c1cccc(-n2cnnn2)c1)C(=O)NC1(C#N)CCCCC1` (stereo not shown), which “hERG current change (%, negative = inhibition) at 1uM” value is on record?
Its value is 3.63%.

Which “hERG current change (%, negative = inhibition) at 1uM” value does the source give for `CC(C)(C)C(=O)O/N=C(\N)c1ccc([N+](=O)[O-])s1` here?
The value was 12.6%.

How did the “hERG current change (%, negative = inhibition) at 1uM” value turn out when `COc1ccccc1C(=O)NCC(=O)Nc1ccc2c(c1)CCC2` was run?
Its value is 4.16%.

`Cc1sc(NC(=O)c2ccco2)c(C(Nc2ccccn2)c2ccccc2)c1C` (stereo not shown) was tested. Which “hERG current change (%, negative = inhibition) at 1uM” value did it give?
Its value is 7.96%.

With `Cc1ccc(S(=O)(=O)NC(=O)c2ccc(-c3ccc(-c4ccccc4)cc3)o2)c(C)c1` as the compound, how does the “hERG current change (%, negative = inhibition) at 1uM” value read?
Its value is -12.6%.

With `COc1ccc(OCc2nnc3n2N=C(c2ccc(Br)cc2)CS3)cc1` as the compound, how does the “hERG current change (%, negative = inhibition) at 1uM” value read?
Its value is 3.32%.

How did the “hERG current change (%, negative = inhibition) at 1uM” value turn out when `COc1ccc([N+](=O)[O-])cc1NC(=O)C(C)c1ccccc1` (stereo not shown) was run?
The value was 6.25%.

`CCOc1ccc(C(=O)NCCO)cc1` was tested. Which “hERG current change (%, negative = inhibition) at 1uM” value did it give?
Its value is 9.43%.

How did the “hERG current change (%, negative = inhibition) at 1uM” value turn out when `CCC(C)NC(=O)c1ccc(NC(=O)CC2SC(N3CCCCC3)=NC2=O)cc1` (stereo not shown) was run?
The value was 16.5%.

With `Cc1cc(C)cc(NC(=O)c2cccc(C(=O)Nc3cc(C)cc(C)c3)n2)c1` as the compound, how does the “hERG current change (%, negative = inhibition) at 1uM” value read?
The value was 16.4%.

Which “hERG current change (%, negative = inhibition) at 1uM” value does the source give for `O=C(Nc1ccccc1)N1CCSc2cc(Cl)ccc21` here?
Its value is 5.93%.

How did the “hERG current change (%, negative = inhibition) at 1uM” value turn out when `CCCCn1c(N)c(-c2nc3ccccc3o2)c2c([N+](=O)[O-])nn(CC)c(=O)c21` was run?
Its value is -0.729%.

`CSc1ncc(CN2CCN(CCC(C)C)C(CCO)C2)cn1` (stereo not shown) was tested. Which “hERG current change (%, negative = inhibition) at 1uM” value did it give?
The value was 2.46%.

Which “hERG current change (%, negative = inhibition) at 1uM” value does the source give for `NC(=O)C1(N2CCCCC2)CCN(CC(=O)Nc2ccccc2Sc2ccccc2)CC1` here?
Its value is 6.89%.

For `COc1ccccc1CN1CCC(CNS(=O)(=O)c2cc(-c3onc(C)c3C)ccc2OC)CC1`, which “hERG current change (%, negative = inhibition) at 1uM” value is on record?
Its value is -22.6%.

`COc1ccccc1NC(=O)/C(=C/c1cccc([N+](=O)[O-])c1)c1ccccc1` was tested. Which “hERG current change (%, negative = inhibition) at 1uM” value did it give?
Its value is -1.44%.

`CC(=O)N1CCN(C2=Nc3cccc4cccc2c34)CC1` was tested. Which “hERG current change (%, negative = inhibition) at 1uM” value did it give?
The value was -5.79%.

How did the “hERG current change (%, negative = inhibition) at 1uM” value turn out when `COc1ccc(OC)c(C(=O)Nc2ccc3[nH]ccc3c2)c1` was run?
Its value is 11.4%.

How did the “hERG current change (%, negative = inhibition) at 1uM” value turn out when `COc1ccc(CN2C(=O)C(CC(C)C)Nc3ncnc(N4CCN(c5ccccc5)CC4)c32)cc1.O=C(O)C(F)(F)F` (stereo not shown) was run?
The value was 8.77%.

How did the “hERG current change (%, negative = inhibition) at 1uM” value turn out when `Cc1cccc(Nc2nc(NCCCN3CCOCC3)nc(N)c2[N+](=O)[O-])c1` was run?
Its value is 8.65%.

How did the “hERG current change (%, negative = inhibition) at 1uM” value turn out when `Fc1ccc(C2c3[nH]c4ccccc4c3CCN2Cc2ccoc2)cc1` (stereo not shown) was run?
Its value is -5.21%.

Which “hERG current change (%, negative = inhibition) at 1uM” value does the source give for `Fc1ccc(CNC(=S)Nc2ccccc2Cl)cc1` here?
Its value is 6.4%.

How did the “hERG current change (%, negative = inhibition) at 1uM” value turn out when `CC(C)Oc1ccc(CNC(=S)N/N=C/c2ccc([N+](=O)[O-])cc2)cc1` was run?
The value was 10.6%.

`c1ccc2[nH]c(CSc3nc4ccccc4o3)nc2c1` was tested. Which “hERG current change (%, negative = inhibition) at 1uM” value did it give?
Its value is 11.6%.

`COc1ccc(-c2cc(C(=O)N/N=C(\C)c3cccnc3)c3ccccc3n2)c(OC)c1` was tested. Which “hERG current change (%, negative = inhibition) at 1uM” value did it give?
Its value is 3.99%.

Which “hERG current change (%, negative = inhibition) at 1uM” value does the source give for `O=C(CCC1CCCN(C(=O)Cc2ccc(F)cc2)C1)N1CCN(c2ccccn2)CC1` (stereo not shown) here?
Its value is 13.3%.

With `CCOC(=O)c1c(NC(=O)Cc2cccs2)sc2c1CCCC2` as the compound, how does the “hERG current change (%, negative = inhibition) at 1uM” value read?
Its value is 14.5%.

How did the “hERG current change (%, negative = inhibition) at 1uM” value turn out when `CCCCn1c(N)c(N(CCOC)C(=O)c2cc3ccccc3cc2OC)c(=O)[nH]c1=O` was run?
The value was 19%.

For `O=C(NN1CCOCC1)c1ccc([N+](=O)[O-])cc1`, which “hERG current change (%, negative = inhibition) at 1uM” value is on record?
Its value is 9.95%.

`CN(C)S(=O)(=O)c1cc(NC(=O)CNCCN2CCOCC2)ccc1Cl.O=C(O)C(=O)O` was tested. Which “hERG current change (%, negative = inhibition) at 1uM” value did it give?
The value was 7.62%.

With `CCOc1ccc(S(=O)(=O)n2c(C)nc3ccccc32)cc1` as the compound, how does the “hERG current change (%, negative = inhibition) at 1uM” value read?
Its value is -12.4%.

Which “hERG current change (%, negative = inhibition) at 1uM” value does the source give for `CCn1c2ccccc2c2cc(NC(=O)c3ccc(C)c([N+](=O)[O-])c3)ccc21` here?
The value was 7.84%.

How did the “hERG current change (%, negative = inhibition) at 1uM” value turn out when `Oc1c(Br)cc(Br)cc1/C=N/c1nccs1` was run?
Its value is 5.68%.

With `CCOCC(=O)Nc1nnc(SCCOC)s1` as the compound, how does the “hERG current change (%, negative = inhibition) at 1uM” value read?
The value was -4.13%.

Which “hERG current change (%, negative = inhibition) at 1uM” value does the source give for `O=C(NC1CC1)C1CCN(C2CCN(C(=O)CC3=CCCCC3)CC2)CC1` here?
Its value is 9.03%.

With `CCN(CC(=O)Nc1cc(Cl)ccc1C)C(=O)CCS(=O)(=O)c1ccc(Cl)cc1` as the compound, how does the “hERG current change (%, negative = inhibition) at 1uM” value read?
Its value is 3.9%.

Which “hERG current change (%, negative = inhibition) at 1uM” value does the source give for `O=C(NCc1ccncc1)c1cc(-c2ccc(Cl)cc2)oc1C(F)(F)F` here?
Its value is 9.61%.

How did the “hERG current change (%, negative = inhibition) at 1uM” value turn out when `Cc1cc(S(=O)(=O)Nc2noc3ccccc23)ccc1F` was run?
The value was 15.4%.
